From ChEMBL document CHEMBL1157539, “Thousands of chemical starting points for antimalarial lead identification” (Nature, 2010) come the findings set out here.

Structures are written as SMILES. The full ranking holds about 13,000 compounds; the median of “IFI” is about 4, and the highest 2% start at about 17. This is one part of the list.

This experiment in a line: GSK_TCMDC: Inhibition Frequency Index (IFI). The number of non-kinase HTS assays where a compound showed > 50 % inhibition, expressed as a percentage of the number of such assays in which the compound was tested (-0 is zero). Type of experiment: functional.
For the compound `COc1ccc(NC(=O)c2ccc(-c3nc(-c4ccc(Cl)cc4)cs3)cc2)cc1N1CCN(C)CC1`, the IFI amounted to 6.42%.

For the compound `CN(C)CCCNCc1ccc(-c2ccc(F)c(Cl)c2)o1`, the IFI came to 6.94%.

In turn, `O=C(/C=C/c1ccc(Cl)c(Cl)c1)NC1CCC(CN2CCC(c3nc4cccnc4[nH]3)CC2)CC1` (centres undefined) registered an IFI of 4.96%.

As to `O=C(NCc1ccco1)c1ccc(CN2CCN(C(c3ccccc3)c3ccccc3)CC2)cc1`, the IFI was 2.14%.

The compound `Cc1noc(C)c1-c1ccc2c(Nc3ccc(Cl)cc3)c(C(N)=O)cnc2c1` returned an IFI of 4.07%.

`COc1ccc(CNCc2ccsc2)cc1-c1ccc(S(=O)(=O)NCCN2CCCC2)s1` came in with an IFI of 9.26%.

As for `COc1ccc(OC)c(Cc2c(C)nc3nc(N)nc(N)c3c2C)c1`, the IFI was 1.46%.

With `CN(C)c1ccc(/C=C2\S/C(=N\c3ccccc3)N(c3ccccc3)C2=O)cc1[N+](=O)[O-]`, the IFI was 0.77%.

`CC(=O)Nc1cccc(C(=O)Nc2cccc(-c3cccc(-c4nc5ccccc5[nH]4)c3)c2)c1`: the IFI stood at 7.14%.

Consider `COc1ccccc1-c1cc(C(=O)N2CCN(S(=O)(=O)c3ccc(C)cc3)CC2)[nH]n1`, for which the IFI was 7.02%.

`CCCCNCc1cc(Cl)c2ccccc2c1O` displayed an IFI of 6.77%.

The compound `CC(C)[C@H](NC(=O)c1c(F)cccc1F)C(=O)Nc1ccc(Cc2nc3ccccc3s2)cc1` showed an IFI of 1.96%.

Turning to `CS(=O)(=O)Nc1ccc2c(C3CCN(CCC4CCN(C(=O)/C=C/c5ccc(Cl)c(Cl)c5)CC4)CC3)c[nH]c2c1`, the IFI stood at 6.47%.

For `Cc1cccc(NC(c2cccs2)c2c(NC(=O)c3ccccc3)sc(C)c2C)n1` (centres undefined), the IFI worked out at 4.65%.

In the case of `O=[N+]([O-])c1cccc(NC(=S)N2CCCN(Cc3ccc(C(F)(F)F)cc3)CC2)c1`, the IFI was found to be 2.96%.

Compound `Cn1nccc1C(=O)NCCNCc1ccc(-c2cccc(-c3nc4cc(F)ccc4[nH]3)c2)cc1` showed an IFI of 5.83%.

In the case of `O=C(NCCCCN1CCC(c2ccc(C(F)(F)F)cc2C(F)(F)F)CC1)c1ccc(NC(=O)c2ccc(Cl)cc2)cc1`, the IFI was found to be 1.5%.

In turn, `CCCCCN1CCCN(Cc2cccc(NC(=O)c3ccc(-c4ccccc4)cc3)c2)CC1` had an IFI of 6.16%.

`CN1CCN(S(=O)(=O)c2cccc(Nc3nccc(N(C)c4ccc5c(c4)nc(NC(=O)c4cccs4)n5C)n3)c2)CC1` returned an IFI of 2.26%.

As to `CCn1c(CN2CCC(C)CC2)nc2cc(NC(=O)c3cccs3)ccc21`, the IFI came to 4.17%.

As to `CNS(=O)(=O)Cc1ccc(Nc2nccc(Nc3cccc4c3cnn4C(=O)Nc3ccccc3)n2)cc1`, the IFI was determined as 14.3%.

In the case of `O=C(Nc1ccc2c(c1)OCO2)c1cc(-c2cccnc2)cnc1NCc1ccc2c(c1)OCO2`, the IFI amounted to 0%.

For the compound `Cc1cc(=NN=Cc2ccccc2Cl)c2cc(F)ccc2[nH]1`, the IFI was -0%.

Compound `Cc1cc2c(cc1C(F)(F)F)N(C(=O)Nc1ccc(OCCN(C)C)c(C(F)(F)F)c1)CC2` had an IFI of 7.35%.

Take `CCOc1ccc(Nc2cc(C)nc(Nc3ccc(OCC)cc3)n2)cc1`: the IFI was found to be 0.71%.

As for `Brc1ccc(Nc2nc(NCc3ccccc3)c3ccccc3n2)cc1`, the IFI was 6.57%.

Compound `NS(=O)(=O)c1ccc(CNC(=O)c2cnc3c(O)cccc3c2Nc2cccc(NC(=O)c3ccc(Cl)c(Cl)c3)c2)cc1` yielded an IFI of 9.3%.

For `O=C(Nc1cccc(-c2ccc(-c3nc4cc(C(F)(F)F)ccc4[nH]3)cc2)c1)c1ccoc1`, the IFI was found to be 6.19%.

In the case of `CCc1cn2c3c(cc(C(=O)N[C@@H](Cc4ccccc4)[C@H](O)CNCc4ccccc4)cc13)N(C)S(=O)(=O)CC2`, the IFI amounted to 2.17%.

As to `Cc1[nH]c(C)c(-c2ccc(Oc3cccc(C(F)(F)F)c3)cc2)c(=O)c1Br`, the IFI stood at 4.58%.

`Cc1cc(-c2cccc(CNCCc3ccc(Cl)cc3)c2)cnc1N` yielded an IFI of 2.26%.

Compound `OC(CNCCCCCCNCC(O)c1ccc(Cl)c(Cl)c1)c1ccc(Cl)c(Cl)c1` (centres undefined) had an IFI of 11.7%.

`CCC(CC)CN1C(=O)C(c2ccccc2)(c2ccccc2)N=C1N` had an IFI of 3.7%.

With `COc1ccc(OC)c(Cc2cnc3nc(N)[nH]c(=O)c3c2C)c1`, the IFI was found to be 1.35%.

In the case of `CCCc1cc(Cc2cnc(N)nc2N)cc(OCCCCCC(=O)O)c1OC`, the IFI worked out at 0.7%.

Turning to `O=S(=O)(NCCN1CCCC1)c1cccc(-c2ccc(CNCc3ccc(F)cc3)cc2)c1`, the IFI amounted to 12%.

Turning to `Cc1nc(-c2ccc(-c3ccc(NC(=O)Nc4ccc(I)c(OCCN(C)C)c4)cc3)c(C)c2)no1`, the IFI worked out at 7.3%.

With `C=C[C@H]1CN(CCCCCCC)CC[C@H]1CC(O)Cc1ccnc2cc(O)c(OC)cc12` (some centres undefined), the IFI worked out at 2.21%.

For the compound `CCCCCC(C)C(C)c1cc(OC(N)=O)c2c(c1)OC(C)(C)C=C2c1ccncc1` (centres undefined), the IFI was determined as 0%.

`CCCc1cc(C(=O)N[C@@H](Cc2ccccc2)[C@H](O)CNC(C)(C)c2cccc(OC)c2)c(F)c(N2CCCC2=O)c1` returned an IFI of 3.65%.

Compound `C#CC(C)(CO)N1CCCC1` (centres undefined) yielded an IFI of 0.72%.

`CN(C)c1ccc(C=C2SC(=N)N(c3nccs3)C2=O)cc1` had an IFI of 10.1%.

Take `CCC(=O)NC(c1ccco1)c1cc(Cl)c2cccnc2c1O` (centres undefined): the IFI worked out at 4.35%.

In the case of `O=C(Nc1ccc(Cl)cc1)Nc1ccc2c(c1)N1CCN=C1S2`, the IFI is 2.82%.

`CC1CN(Cc2cccc(F)c2)CCN1c1ccc(NC(=O)c2cccs2)cc1` (centres undefined) registered an IFI of 0%.

On to `COc1cc2cc(Cc3cnc(N)nc3N)ccc2c(OC)c1OC`, for which the IFI is 1.47%.

In turn, `CCC(=O)N(c1ccccc1)C1CCN(CCCC(NC(=O)Nc2cc(C(F)(F)F)cc(C(F)(F)F)c2)c2ccc(Cl)c(Cl)c2)CC1` (centres undefined) registered an IFI of 6.38%.

The compound `NS(=O)(=O)c1cccc(Nc2nccc(-c3c(-c4cccc(NC(=O)c5c(F)cccc5F)c4)nn4ccccc34)n2)c1` registered an IFI of 7.86%.

In turn, `CCN(CCCN1CCCCC1)c1cc(C)nc(Nc2cccc(OC(F)(F)F)c2)n1` gave an IFI of 7.59%.

Compound `CCN1CCC(N(Cc2ccc(-c3ccc(C(F)(F)F)s3)cc2)C(=O)Cn2c(CCc3cccc(F)c3F)nc(=O)c3ccccc32)CC1` returned an IFI of 8.39%.

Compound `O=C(Nc1ccc(S(=O)(=O)N2CCOCC2)cc1)c1cc(-c2cc(Cl)ccc2O)n[nH]1` displayed an IFI of 10.6%.

`Nc1ccc(-c2ccc(NC(=O)Nc3cc(C(F)(F)F)ccc3F)cc2)cn1` displayed an IFI of 1.32%.

On to `Cc1cc(NCCc2ccccc2)nc(NC(=N)Nc2cccc([N+](=O)[O-])c2)n1`, for which the IFI was found to be 6.21%.

As to `CNCCNCc1cccc(-c2cccc(-c3nc4cc(F)ccc4[nH]3)c2)c1`, the IFI worked out at 7%.

The compound `Cc1cc(=NN=Cc2ccccc2Cl)c2ccc(F)cc2[nH]1` had an IFI of 0%.

For `Cc1cc(C)c(C)c(S(=O)(=O)N2CCCCC(c3ccc(F)c(F)c3)=N2)c1C`, the IFI is 0.78%.

Compound `Cc1cccc2nc(-c3ccc(-c4ccc(CNCc5ccc(CN)cc5)cc4)cc3)[nH]c12` displayed an IFI of 11.8%.

Consider `COc1ccc2nccc([C@@H](O)CN3CCC(NCCNc4cccc(F)c4)CC3)c2c1`, for which the IFI was found to be 2.9%.

Compound `CC(CN1CCN(C)CC1)C(=O)Nc1ccc(-c2ccc(-c3nc4ccccc4[nH]3)s2)cc1` (centres undefined) returned an IFI of 1.85%.

With `CC(C)(C)CN1C(=O)C(c2ccccc2)(c2ccccc2)N=C1N`, the IFI came out at 5.77%.

Take `O=C(NCCCCN1CCC(c2ccc3c(c2OCCN2CCCC2=O)CCCC3)CC1)c1ccc(-c2ccc(C(F)(F)F)cc2)cc1`: the IFI was found to be 9.65%.

For `Cc1cc2nc(-c3ccc(C(=O)NC4CCN(Cc5ccccc5)CC4)cc3)[nH]c2cc1C`, the IFI was 0%.

In the case of `O=C(NC1CCC(N2CCCC(OCc3ccccc3)C2)CC1)c1cc2ccccc2[nH]1` (centres undefined), the IFI was 3.08%.

`N#Cc1ccc2[nH]c(-c3cc(-c4cccc(F)c4)cnc3N)nc2c1` came in with an IFI of 3.7%.

In turn, `O=S(=O)(NCCN1CCCC1)c1ccc(-c2cccc(CNCCc3cccs3)c2)s1` returned an IFI of 9.73%.

`CS(=O)(=O)c1cccc(-c2cnc3[nH]cc(-c4ccc(CCC(=O)O)cc4)c3c2)c1` registered an IFI of 4.39%.

`O=C(Cc1cccnc1)N(Cc1ccc(-c2ccc(CNCc3cccnc3)cn2)cc1)C1CCN(Cc2ccccc2)CC1`: the IFI stood at 0.69%.

Regarding `CC(C)(C)OC(=O)NCc1ccc(Nc2nnc(-c3cccc(C(=O)NCc4cc(C(F)(F)F)cc(C(F)(F)F)c4)c3)o2)cc1`, the IFI stood at 6.02%.

On to `CCCCc1cc(O)c2c(c1)OC(C)(C)C=C2C1=CCN(Cc2ccccc2)CC1`, for which the IFI turned out to be 1.43%.

Take `CCN(CC)c1ccc(C(c2ccc(N(CC)CC)cc2)c2ccc([N+](=O)[O-])cc2)cc1`: the IFI is 4.35%.

Compound `O=c1c2ccc(Sc3ccccn3)cc2n(-c2ccccc2)c2cc(Sc3ccccn3)ccc12` yielded an IFI of 4.51%.

`NC1=NC(Cc2ccccc2)(c2ccncc2)C(=O)N1CCCc1ccccc1` (centres undefined) returned an IFI of 2.44%.

On to `Fc1cccc(-c2ccc3c(c2)CC(NCc2c[nH]c4cnccc24)C3)c1` (centres undefined), for which the IFI was determined as 11.4%.

In turn, `CCCCCCN1CCC(NCc2cccc(C#N)c2)CC1` returned an IFI of -0%.

Regarding `CC(=O)N1CCC(C(=O)Nc2ccc(-c3cccc(-c4nc5cccc(C)c5[nH]4)c3)cc2)CC1`, the IFI is 6.54%.

Turning to `O=S(=O)(c1cc(Cl)c(Cl)cc1Cl)N1CCCCC(c2ccc(C(F)(F)F)cc2)=N1`, the IFI is -0%.

As to `COc1ccc(-c2ccc(NC(=O)c3ccc(Cl)cc3)cc2)cc1CN(C)CCN(C)C`, the IFI was 4.95%.

With `Cc1cccc2nc(-c3ccc(-c4cccc(NCc5cn6cccnc6n5)c4)cc3)[nH]c12`, the IFI amounted to 6.19%.

As to `CCCC(C)Nc1nc(C)cc(N[C@@H](Cc2ccccc2)C(=O)Nc2ccc(OC)cc2)n1` (some centres undefined), the IFI was determined as 2.78%.

As to `c1ccc(-c2ccc(-c3nc4ccccc4[nH]3)cc2)cc1`, the IFI was 4.03%.

The compound `Fc1cccc(C=NN=c2cc[nH]c3ccccc23)c1` had an IFI of 0.71%.

Take `O=C(O)c1ccc(NC(=O)C2CC(=O)N(Cc3ccc(Cl)cc3)C(=Nc3ccc(Cl)cc3)S2)cc1` (centres undefined): the IFI was 0%.

Turning to `O=C(Nc1ccc(Cl)cc1F)NC1CCN(CCCCCNC(=O)C2CC2c2ccc(Cl)c(Cl)c2)CC1` (centres undefined), the IFI was 10.7%.

As for `O=C(/C=C/c1ccc(Cl)c(Cl)c1)NCCCCCN1CCCC(CNC(=O)Nc2ccc(Oc3ccccc3)cc2)C1` (centres undefined), the IFI was determined as 9.42%.

The compound `Cc1ccc(N2CCN(C(=O)c3cccc(-c4cncc5nc(-c6ccco6)n(C)c45)c3)CC2)nc1` yielded an IFI of -0%.

The compound `CCC(C)CN1C(=O)C(c2ccccc2)(c2ccccc2)N=C1N` (centres undefined) showed an IFI of 2.86%.

`Cc1cc(C(F)(F)F)cc(-n2ncc(-c3ccc(C(=O)NCc4ccccc4N)cc3)c2N)n1`: the IFI came out at 10.8%.

`COc1ccc(-c2nc3c(N)nc(N)nc3nc2C(C)C)cc1` gave an IFI of 3.79%.

Take `Cc1cc(C2CCN(CCCCNC(=O)c3ccc(NC(=O)c4ccc(Cl)cc4)cc3)CC2)c(C)cc1OCc1nccn1C`: the IFI was determined as 0.76%.
